Reference: PubChem BioAssay AID651820 (National Center for Advancing Translational Sciences (NCATS), 2012)
The whole screen tested about 340,000 compounds, of which about 12,000 (3.5%) were called active. Inconclusive results, whose numbers are uncertain, are shown with a selection of clear calls. The call rests on the fitted dose curve; in most records, active means well fitted inhibition curve with a large enough effect; inconclusive means small, poorly fitted or top-dose-only effect, or another doubt; inactive means no such curve, though single readings can be large or run the other way. No potency is given beside an inconclusive call; the fits are too rough.

Assay: qHTS Assay for Inhibitors of Hepatitis C Virus (HCV)
Settings: Huh7.5.1 HCVcc-Cre (HCVcc is cell-culture hepatitis C virus) infection, luciferase reporter, 44 h; activity change, negative = inhibition: at 41.8 µM (top of the series) unless noted
Summary of the method: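 1,000 cells/well; 4 h culture; + compound; + HCVcc-Cre (~0.5 moi); 44 h; luciferase substrate, RT 15 min; read 15 sec.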
On the % scale 0 is the no-effect control and ±100 the full control effect; potency means the concentration at half of the fitted maximal effect; tags describe the fitted curve by direction and shape.

| SMILES | Potency | activity change, negative = inhibition |
| --- | --- | --- |
| Cc1ccc(C(=O)NC(C#N)=C(Cl)Cl)cc1 | active: 6.31 µM | – |
| CCc1noc(C)c1C(=O)OC(C)C(=O)Nc1ccccc1OC (stereo not given) | – | inactive: 16.9% |
| CN(CC(=O)Nc1ccc(Br)cc1)Cc1ccccc1 | – | inactive: -20.4% |
| c1ccc(-c2ccc(-c3nc(-c4ccncc4)no3)cc2)cc1 | – | inactive: -23.8% |
| O=C1/C(=C\c2cccc(O)c2)SC(=S)N1Cc1ccccc1 | – | inactive: -13.5% |
| CN(C)C(=O)c1ccc(-n2nc(C(F)(F)F)c3c2CCCC3)cc1 | active: 10 µM | – |
| CSc1ccccc1OCc1cc(C(=O)NCc2ccc(C)s2)no1 | inconclusive [inhibitor, single point] | – |
| C(=N\n1cnnc1)/c1ccccn1 | – | inactive: 0.963% |
| COc1ccc(N(C)S(=O)(=O)c2cccc(C(=O)Nc3nc(C)c(C(C)=O)s3)c2)cc1 | inconclusive [inhibitor, full curve] | – |
| COC(=O)c1ccc(Cn2cnc3c(cnn3-c3ccc(Cl)cc3)c2=O)o1 | inconclusive [inhibitor, single point] | inactive: -1.94% [at 0.335 µM] |
| COc1ccc(/C=C2\Sc3ccc(C(=O)NCc4cccnc4)cc3N(C)C2=O)cc1OC | active: 8.91 µM | – |
| COc1ccc(CN(C)CC(=O)Nc2c(C)cccc2C)c(OC)c1 | inconclusive [inhibitor, partial curve] | – |
| COc1ccc(S(=O)(=O)N2CCCCCC2)cc1C(=O)N(C)CC(=O)Nc1ccc(F)cc1 | inconclusive [inhibitor, partial curve] | – |
| Cn1c(=O)[nH]c2cc3ccccc3cc21 | inconclusive [inhibitor, single point] | – |
| COc1ccc(NC(=O)c2ccc3c(c2)CCN3S(=O)(=O)c2ccccc2)c(OC)c1 | inconclusive [inhibitor, partial curve] | – |
| Cc1cc(NC(=O)CSc2cc(Cl)ccc2Cl)n(-c2ccccc2)n1 | inconclusive [inhibitor, partial curve] | – |
| O=S(=O)(c1ccc(NC(=S)N2CCN(c3ccccc3F)CC2)cc1)N1CCOCC1 | inconclusive [inhibitor, partial curve] | – |
| COc1ccc(CC(=O)N(CCN(C)C)CC2CCCN(Cc3ccccc3F)C2)cc1 (stereo not given) | inconclusive [inhibitor, partial curve] | – |
| CCOc1nc(Nc2cc(Cl)ccc2OC)nc(OCC)n1 | – | inactive: -0.0846% |
| NC(=O)C1(Nc2ccc(-c3ccccc3)cc2)CCCC1 | – | inactive: -9.54% |
| CCc1noc(C)c1C(=O)Nc1nc(-c2cc(OC)ccc2OC)cs1 | inconclusive [inhibitor, full curve] | – |
| COc1cc(S(=O)(=O)NCCOC23CC4CC(CC(C4)C2)C3)c(OC)cc1Cl | inconclusive [inhibitor, single point] | – |

| SMILES | Potency | activity change, negative = inhibition |
| --- | --- | --- |
| COc1ccccc1C/C(N)=N/OC(=O)c1cccc([N+](=O)[O-])c1 | inconclusive [inhibitor, single point] | – |
| Cc1ccc(CNC(=O)CC2(CC3=NS(=O)(=O)c4ccccc4N3)CCCC2)cc1 | active: 11.2 µM | – |
| O=C(Nc1ccc(-c2noc(COc3ccccc3Cl)n2)cc1)c1ccco1 | inconclusive [inhibitor, full curve] | – |
| COCCCNC(=O)CNC(=O)c1nn(-c2ccc(OC)cc2OC)c(=O)c2ccccc12 | – | inactive: 17.5% |
| CCc1nnc(NC(=O)c2nc(S(=O)(=O)Cc3ccc(C)cc3)ncc2Cl)s1 | inconclusive [inhibitor, single point] | – |
| COc1ccc(NC(=O)c2cccc(NC(=O)c3ccco3)c2)c(OC)c1 | inconclusive [inhibitor, partial curve] | – |
| COc1cc(C(=O)NCC(=O)NCCN2C(=O)S/C(=C\c3ccc4c(c3)OCO4)C2=O)cc(OC)c1OC | inconclusive [inhibitor, partial curve] | – |
| CCC1(CC)NC(=O)N(CC(=O)OCC(=O)Nc2ccccc2OC(F)F)C1=O | – | inactive: 0.944% |
| O=C(c1ccc(N2CCOCC2)cc1)c1cccs1 | inconclusive [inhibitor, single point] | – |
| CC(C)CNS(=O)(=O)c1ccc(CCC(=O)N2CCN(Cc3ccc4c(c3)OCO4)CC2)cc1 | inconclusive [inhibitor, partial curve] | – |
| COc1cc(C2C(C#N)=C(N)N(Nc3ccccc3)C3=C2C(=O)CC(C)(C)C3)ccc1OCc1ccccc1 (stereo not given) | inconclusive [inhibitor, partial curve, poor fit] | – |
| CCn1c2ccccc2c2cc(NC(=O)c3cccc([N+](=O)[O-])c3)ccc21 | active: 2.24 µM | – |
| COc1ccc(Br)cc1C(=O)Nc1ccccc1-c1ccccc1 | inconclusive [inhibitor, single point] | – |
| COC(=O)c1ccc(CSc2nc(-c3ccco3)cc(C(F)(F)F)n2)o1 | inconclusive [inhibitor, single point] | – |
| CCOc1ccccc1N1CCN(c2ncnc3scc(-c4ccc(OC)cc4)c23)CC1 | inconclusive [inhibitor, single point] | – |
| CCCC(/C=C/c1ccc(OC(C)=O)cc1)=C1/c2ccccc2C(=O)N1c1ccccc1 | inconclusive [inhibitor, single point] | – |
| Cc1ccc2c(CC(=O)Nc3sccc3C(N)=O)coc2c1 | inconclusive [inhibitor, full curve] | – |
| Cc1ccc(NC(=O)c2ccc(CSc3nnc(-c4ccncc4)n3C)cc2)cc1 | – | inactive: 13.9% |
| COc1ccc2ccccc2c1CN1CCN(C(=O)c2ccccc2)CC1 | inconclusive [inhibitor, single point] | – |
| COc1cc(OC)c(OC)cc1/C=C1/Cc2ccccc2C1=O | inconclusive [inhibitor, single point] | – |
| CC(C)N1CCN(c2ccc(OCC3COC(Cn4cncn4)(c4ccc(Cl)cc4Cl)O3)cc2)CC1 (stereo not given) | inconclusive [inhibitor, single point] | – |
| COc1ccccc1N1CCN(C(=O)c2cccc(S(=O)(=O)N3CCCCCC3)c2)CC1 | inconclusive [inhibitor, partial curve] | – |
